Reference: paper PMC5892938
This is one part of the list. At the low end of the ranking the order means little.

These sequences were tested against GST-SBP-SLBP (stem-loop binding protein) (UniProt Q14493) (assay: targeted RNA Bind-n-Seq). Details: RBNS binding buffer: 25 mM Tris pH 7.5, 150 mM KCl, 3 mM MgCl2, 0.1% Tween, 0.5 mg/mL BSA, 1 mM DTT; 27 nM protein, 750 pM RNA pool; temperature not stated; high values mean tight binding.
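Further: DESeq read counts versus GST-SBP nonspecific binding control pulldown.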

Row | Sequence | binding signal (log2 fold change)
1 | GGUCACGUCUCAAUCAACUCAACUUCAGGAGUUUUCUCCUGCAAACUCAACAGCUCGCAGUCAAG | -0.000925
2 | GGUCACGUCUCAAUCAACUCUUUUCCCAGGGAAAUCCCUGGUAUUUUCAACAGCUCGCAGUCAAG | -0.0337
3 | GGUCACGUCUCAAUCAACUCUUUCCCCAGGGAAAUCCCUGGCUUAUUCAACAGCUCGCAGUCAAG | 0.146
4 | GGUCACGUCUCAAUCAACUCUUCUUCCAGGGAAAGCCCUGGCAAUCUCAACAGCUCGCAGUCAAG | -0.0475
5 | GGUCACGUCUCAAUCAACUCUUCCUCAGGAGUUUACUCCUGUAAUUUCAACAGCUCGCAGUCAAG | 0.0518
6 | GGUCACGUCUCAAUCAACUCAAUCCCAGGAGUUUCCUCCUGUAUUUUCAACAGCUCGCAGUCAAG | 0.216
7 | GGUCACGUCUCAAUCAACUCUUCCCCCAGGGAAAACCCUGGCAAACUCAACAGCUCGCAGUCAAG | 0.0816
8 | GGUCACGUCUCAAUCAACUCAUCGCCAGGAGUUUCCUCCUGUAAUCUCAACAGCUCGCAGUCAAG | 0.147
9 | GGUCACGUCUCAAUCAACUCCUUCGAGGGGGGGAAAACCCCUUUACCCUCAUCAUCAACAGCUCGCAGUCAAG | -0.187
10 | GGUCACGUCUCAAUCAACUCUUUCCCCAGGGAAACCCCUGGCUUAUUCAACAGCUCGCAGUCAAG | 0.242
11 | GGUCACGUCUCAAUCAACUCUAUUCCCAGGGAAACCCCUGGUAAAUUCAACAGCUCGCAGUCAAG | 0.224
12 | GGUCACGUCUCAAUCAACUCUUAAGAGGGGGGGAAAACCCCUUUGCCCUCCAACUCAACAGCUCGCAGUCAAG | 0.269
13 | GGUCACGUCUCAAUCAACUCUUCCCCCAGGGAAAGCCCUGGCUAUCUCAACAGCUCGCAGUCAAG | 0.115
14 | GGUCACGUCUCAAUCAACUCUUUAGAGGGGGGGAAAACCCCUUUACCCUCAUCCUCAACAGCUCGCAGUCAAG | 0.00761
15 | GGUCACGUCUCAAUCAACUCAACUUCAGGAGUUUACUCCUGUUAAUUCAACAGCUCGCAGUCAAG | 0.103
16 | GGUCACGUCUCAAUCAACUCCAACGAGGGGGGGAAAACCCCUUUACCCUCACAUUCAACAGCUCGCAGUCAAG | 0.014
17 | GGUCACGUCUCAAUCAACUCUAUUUCAGGAGUUUUCUCCUGCUUUGUCAACAGCUCGCAGUCAAG | 0.00122
18 | GGUCACGUCUCAAUCAACUCAUUCCCCAGGGAAAGCCCUGGCUUUCUCAACAGCUCGCAGUCAAG | -0.275
19 | GGUCACGUCUCAAUCAACUCUCAAGAGGGGGGGAAAACCCCUUUUCCCUCAAAUUCAACAGCUCGCAGUCAAG | -0.383
20 | GGUCACGUCUCAAUCAACUCUUCCCCCAGGGAAAUCCCUGGCAUAUUCAACAGCUCGCAGUCAAG | 0.0248
21 | GGUCACGUCUCAAUCAACUCAUUCCCAGGAGUUUUCUCCUGUAUAUUCAACAGCUCGCAGUCAAG | -0.0682
22 | GGUCACGUCUCAAUCAACUCAAUUCCAGGAGUUUCCUCCUGCAAACUCAACAGCUCGCAGUCAAG | 0.0917
23 | GGUCACGUCUCAAUCAACUCUUUAGAGGGGGGGAAAACCCCUUUACCCUCAAUCUCAACAGCUCGCAGUCAAG | -0.0216
24 | GGUCACGUCUCAAUCAACUCUUCUUCAGGAGUUUCCUCCUGCAAAUUCAACAGCUCGCAGUCAAG | 0.0653

Row | Sequence | binding signal (log2 fold change)
25 | GGUCACGUCUCAAUCAACUCUACUUCAGGAGUUUCCUCCUGCAUUUUCAACAGCUCGCAGUCAAG | 0.0226
26 | GGUCACGUCUCAAUCAACUCUUCCUCAGGAGUUUACUCCUGUAAUGUCAACAGCUCGCAGUCAAG | -0.0264
27 | GGUCACGUCUCAAUCAACUCAGUCUCAGGAGUUUUCUCCUGCAUAUUCAACAGCUCGCAGUCAAG | 0.145
28 | GGUCACGUCUCAAUCAACUCAUCCCCCAGGGAAAUCCCUGGUUUUUUCAACAGCUCGCAGUCAAG | -0.139
29 | GGUCACGUCUCAAUCAACUCAUUUCCCAGGGAAAUCCCUGGCAAUCUCAACAGCUCGCAGUCAAG | 0.279
30 | GGUCACGUCUCAAUCAACUCUUUUUCCAGGGAAAUCCCUGGCAUGUUCAACAGCUCGCAGUCAAG | 0.035
31 | GGUCACGUCUCAAUCAACUCUUUAGAGGGGGGGAAAACCCCUUUGCCCUCGAUAUCAACAGCUCGCAGUCAAG | -0.184
32 | GGUCACGUCUCAAUCAACUCAAUAGAGGGGGGGAAAACCCCUUUACCCUCACCUUCAACAGCUCGCAGUCAAG | 0.223
33 | GGUCACGUCUCAAUCAACUCUUUUUCCAGGGAAAGCCCUGGCUAUUUCAACAGCUCGCAGUCAAG | -0.24
34 | GGUCACGUCUCAAUCAACUCAUCGCCCAGGGAAAGCCCUGGUAAUUUCAACAGCUCGCAGUCAAG | -0.248
35 | GGUCACGUCUCAAUCAACUCAACUUCAGGAGUUUCCUCCUGUAAACUCAACAGCUCGCAGUCAAG | 0.0404
36 | GGUCACGUCUCAAUCAACUCAGUCCCAGGAGUUUCCUCCUGUUAAUUCAACAGCUCGCAGUCAAG | -0.266
37 | GGUCACGUCUCAAUCAACUCUAUCCCAGGAGUUUUCUCCUGUUUACUCAACAGCUCGCAGUCAAG | 0.11
38 | GGUCACGUCUCAAUCAACUCUUCCCCCAGGGAAAUCCCUGGCUAUCUCAACAGCUCGCAGUCAAG | 0.019
39 | GGUCACGUCUCAAUCAACUCACAAGAGGGGGGGAAAACCCCUUUACCCUCAUAAUCAACAGCUCGCAGUCAAG | 0.033
40 | GGUCACGUCUCAAUCAACUCUUCUUCCAGGGAAACCCCUGGCAUAUUCAACAGCUCGCAGUCAAG | 0.228
41 | GGUCACGUCUCAAUCAACUCUAUCUCAGGAGUUUCCUCCUGUAAAUUCAACAGCUCGCAGUCAAG | 0.0554
42 | GGUCACGUCUCAAUCAACUCAUUUUCCAGGGAAAACCCUGGCAUAUUCAACAGCUCGCAGUCAAG | -0.0195
43 | GGUCACGUCUCAAUCAACUCAUCCUCAGGAGUUUUCUCCUGUUUACUCAACAGCUCGCAGUCAAG | 0.252
44 | GGUCACGUCUCAAUCAACUCAUCUUCAGGAGUUUGCUCCUGCAUUCUCAACAGCUCGCAGUCAAG | 0.17
45 | GGUCACGUCUCAAUCAACUCAAGUCCAGGAGUUUUCUCCUGUAAAUUCAACAGCUCGCAGUCAAG | 0.00976
46 | GGUCACGUCUCAAUCAACUCAUCCUCCAGGGAAAUCCCUGGCAAACUCAACAGCUCGCAGUCAAG | 0.0379
47 | GGUCACGUCUCAAUCAACUCUUUUUCCAGGGAAACCCCUGGCAAUUUCAACAGCUCGCAGUCAAG | -0.164
